The source of these data is the supplement of paper PMC11417369.

± gives the standard deviation of the averaged measurements. Some of the results follow.

The test relates to PfAP2-I AP2 domain 3 (GST-tagged). In words: gcPBM binding intensity (ln(normalized median fluorescence intensity)); higher = stronger DNA binding. The gist of the method: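 Alexa488 anti-GST antibody, scanned at 488 nm, detected GST-tagged P. falciparum DNA-binding domains that had been expressed in E. coli and incubated for 1 h on an Agilent 4 × 180k array. The array carried primer-extended double-stranded 36-bp intergenic genomic probes and negative controls. Binding intensity is the highest Masliner-normalised natural-log median intensity across replicate spots of either orientation of each probe.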
“AGTAAATAATTATATACATGCATTTACTAATATTTA [TGCATGCA_site952]”: the “gcPBM binding intensity (ln)” value was 8.04 ± 0.56.
“ATATGACGTAGTGGTGTACACACATGGTACCTTTAT [CACACA_site8436]”: the “gcPBM binding intensity (ln)” value worked out at 8.39 ± 0.41.
The result for “AATATATATTTATGTACACACTCCAATACAGATACA [CACACA_site5481]” reads 8.06 ± 0.31; that for “CATATACATACACATACACACATACACCCATACACA [CACACA_site8514]”, 8.395 ± 0.035.
Under “TGTAAAAAATTTAACACACACATATATAAATATGTA [CACACA_site7261]” stands 7.58 ± 0.26; under “TATATTATAATTTGAAGTACATTTTAAATTAACTAA [XGTACX_site1013]”, 7.51 ± 0.29.
The result for “ATATAATAGTATATATGTACATATATTTAAATACTA [XGTACX_site1135]” reads 7.74 ± 0.4.
Take “AGAGAGAGAAATACAAGTACATGTGAAACCAATCTA [XGTACX_site2767]”: the “gcPBM binding intensity (ln)” value came out at 7.86 ± 0.26.
The result for “AAAAAATAAAAAAAAACACACACATACAAGCATATA [CACACA_site8451]” reads 7.74 ± 0.43; that for “AAAAAAAACAAATACACACGCACACCGAAAAAAAAA [CACACA_site803]”, 8.02 ± 0.53; that for “TTCAACATAATATGCACACAAAAATTATGGAACGAA [CACACA_site2111]”, 8.96 ± 0.12.
Turning to “AAAAAAAAAAAAATTGCACACAAAAAAAAAAAAAAA [CACACA_site8644]”, the “gcPBM binding intensity (ln)” value came out at 8.88 ± 0.25.
The result for “AAAAAAAAAAAACACACACACACACCCACAAAATAT [CACACA_site1447]” reads 8.24 ± 0.18.
The result for “AAAAAAAAATACCTACGTACATATATATATTATATA [XGTACX_site3983]” reads 7.64 ± 0.38; that for “CTTTATCTTCTCACGAAGATTGAATAAGGTATTCTT [XGTACX_negctrl_site307]”, 7.14 ± 0.78.
On to “CAGACAATAAAGAAGTGTACACATATATCAATAAAA [XGTACX_site4515]”, for which the “gcPBM binding intensity (ln)” value was determined as 8.11 ± 0.67.
Under “TTAATGCACTTTATTACACACACTAGTTCATTACCT [CACACA_site2294]” stands 11.5 ± 0.95; under “TATTCACATACAGAAACACACACATATATATAAATT [CACACA_site9232]”, 7.79 ± 0.43.
For the sequence “TTTGTGTGTGCGTGTGCATGTTGTTTTTTTCTATAA [TGCATGCA_site17]”, the “gcPBM binding intensity (ln)” value was 8.45 ± 0.48.
The result for “AATATAATAACTTATTGTACGAAATTATATCACCTT [XGTACX_site7883]” reads 7.67 ± 0.61; that for “TAATTAAGCATAAATATAATTTTATATTTTATTTCC [XGTACX_negctrl_site321]”, 7.28 ± 0.44.
With “TAACATAGCAATGTTTCACACACAAGAAAAAATACA [CACACA_site8747]”, the “gcPBM binding intensity (ln)” value amounted to 7.83 ± 0.64.
The result for “TGCAGTCTGGAGAAAAGTACATAGTATCTGGTAGCT [XGTACX_site2547]” reads 7.87 ± 0.66; that for “ATATATGTATATATTTGTACATATAATATTTTTTAA [XGTACX_site6345]”, 7.31 ± 0.31.
